Measurements taken from PubChem BioAssay AID652104 (National Center for Advancing Translational Sciences (NCATS), 2013).
The whole screen tested about 410,000 compounds, of which about 7,200 (1.8%) were called active. Inconclusive means that the source gave no clear call. Such entries were picked first, then a sample of the others. Calls come from the whole dose curve; as a rule, active = well fitted activation curve with a large enough effect; inconclusive = small, poorly fitted or top-dose-only effect, or another doubt; inactive = no such curve, though single readings can be large or run the other way. No potency is given beside an inconclusive call; the fits are too rough.
Potency is the fitted concentration of half-maximal effect; tags give direction and shape of the fitted curve.

Experiment: qHTS of TDP-43 Inhibitors; note: nearly all actives have a fitted effect of over 50% in size; for growth rescue (activation): % of control where 0% means no effect
Details: TDP-43 expressing yeast growth rescue, BacTiter-Glo, 24 h; growth rescue (activation): at 46.1 µM (top of the series) unless noted
Outline: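 Growth rescue of TDP-43-toxic yeast measured as ATP luminescence (BacTiter-Glo). Cells grown to mid-log in raffinose, induced in galactose at OD600=0.02, exposed to compound 24 hr at 30 deg C.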
In the case of `Cc1cc(NC(=O)CSc2cn(C)c3ccccc23)no1`, the Potency is reported as inconclusive [activator, partial curve]. With `O=C(NC(=S)Nc1ccccc1N1CCCCC1)c1ccc(F)cc1Cl` the Potency was “inactive”. With `O=C(Nc1ccccc1)c1sccc1Oc1ccc([N+](=O)[O-])cc1F` the Potency was inconclusive [activator, single point]. In the case of `COc1ccc(/C=C2\SC(=O)NC2=S)cc1OC`, the Potency is reported as active: 8.91 µM. With `O=[N+]([O-])c1ccccc1/C=N/Nc1nnc(-c2ccccc2)c(-c2ccccc2)n1` the Potency was “inactive”. In the case of `COc1ccc(Cl)cc1NC(=O)CN(C)C(=O)c1cc2c(F)cccc2s1`, the Potency is reported as inconclusive [activator, partial curve]. In the case of `C/C(=N\NC(=S)Nc1ccc(F)cc1)c1ccc2c(c1)OCCO2`, the Potency is reported as inconclusive [activator, partial curve, poor fit]. For `CC(C)Oc1ccc(CNC(=O)C(C)n2ccc3cc(S(=O)(=O)N4CCCCCC4)ccc32)cc1` (centres undefined), the Potency was “inactive”. For `COc1cccc(NC(=O)C(C)n2c(=O)cc(C(F)(F)F)c3c(C)nn(C)c32)c1` (centres undefined), the Potency was “inactive”. In the case of `CC(Oc1cc2oc(=O)c3c(c2cc1Cl)CCCC3)C(=O)NCc1ccncc1` (centres undefined), the Potency is reported as inconclusive [activator, single point]. With `Cc1ccc(-c2nnc(SCc3ccccc3)o2)cc1` the Potency was inconclusive [activator, partial curve]. For `O=C(NCc1cccc(Br)c1)C1CCCCN1S(=O)(=O)c1ccc(F)cc1` (centres undefined), the Potency was inconclusive [activator, single point]. In the case of `Cc1nnc(NC(=O)c2nn(CC(C)C)c(=O)c3ccccc23)s1`, the Potency is reported as inconclusive [activator, partial curve]. With `COc1ccccc1Nc1c([N+](=O)[O-])cncc1[N+](=O)[O-]` the Potency was inconclusive [activator, single point]. With `O=C(Nc1ccccc1)C(=O)c1c[nH]c2ccccc12` the Potency was inconclusive [activator, partial curve]. In the case of `NC(=O)c1c(NC(=O)c2noc3c2CCCC3)sc2c1CCCC2`, the Potency is reported as “inactive”. For `COc1ccc(N2CCN(C(=O)c3cc(=O)c4cc(Cl)ccc4o3)CC2)cc1`, the Potency was inconclusive [activator, partial curve]. In the case of `CCCCN(C)C(=O)c1sc(=O)n(Cc2c(C)cccc2C)c1C`, the Potency is reported as inconclusive [activator, single point]. In the case of `Cc1c(C(=O)Nc2c(F)cccc2F)sc2ncnc(N3CCN(c4ccccc4)CC3)c12`, the Potency is reported as inconclusive [activator, single point]. With `COc1ccc(S(=O)(=O)NCCc2ccccc2)cc1OC` the Potency was “inactive”. With `O=C(NC1CCOC1)c1cc(COc2cccc(C(F)(F)F)c2)on1` (centres undefined) the Potency was inconclusive [activator, partial curve]. With `Cc1cccc(C)c1NC(=O)c1ccc(-c2cc(F)ccc2F)o1` the Potency was active: 11.2 µM. For `CCCc1c(C)nc2ccc(OC)cc2c1SCCC(=O)O`, the Potency was “inactive”. In the case of `CC1(C)O[C@@H]2C[C@H]3[C@@H]4CCC5=CC(=O)C=C[C@]5(C)[C@@]4(F)[C@@H](O)C[C@]3(C)[C@]2(C(=O)CO)O1`, the Potency is reported as inconclusive [activator, full curve]. With `Cc1cc(/C=C2\SC(=O)N(C)C2=O)c(C)n1-c1ccc(O)cc1` the Potency was inconclusive [activator, single point]. With `Cc1ccc(-c2nc3cc(C)c(Br)c(C)n3c2CC2CCCCC2)cc1` the Potency was “inactive”. With `Cc1ccc(S(=O)(=O)NC2CC3CCC2C3)cc1` (centres undefined) the Potency was inconclusive [activator, single point]. With `CC(C)CCn1cnc2c(oc3nc4c(cc32)CCCC4)c1=O` the Potency was inconclusive [activator, single point]. For `COc1cc(C(=O)NCc2cccc3ccccc23)ccc1OCc1ccccc1`, the Potency was inconclusive [activator, partial curve]. With `O=C(NC(=S)Nc1cccc(O)c1)C12CC3CC(CC(C3)C1)C2` the Potency was inconclusive [activator, partial curve]. For `Cc1ccc(C(=O)Nc2ncccc2C)cc1S(=O)(=O)N1CCCCC1`, the Potency was “inactive”. With `COc1ccc2oc(=O)c(C(=O)NCCc3c(C)[nH]c4c(C)cccc34)cc2c1` the Potency was “inactive”. In the case of `O=C1C=C(Nc2ccc(Cl)cc2)C(=O)N1c1ccc(Cl)cc1`, the Potency is reported as inconclusive [activator, single point]. For `CCOc1cc2[nH]c(=O)n(CCC(=O)N3CCN(c4cccc(Cl)c4)CC3)c(=O)c2cc1OCC`, the growth rescue (activation) was inactive: 10.6% [at 9.22 µM]. In the case of `O=C(CNC(=O)c1ccco1)OCC(=O)c1ccc(Cl)cc1`, the Potency is reported as inconclusive [activator, partial curve]. In the case of `COC(=O)c1cc(C)nc2c1c(=O)nc(SCc1cc(C)ccc1C)n2C1CC1`, the Potency is reported as “inactive”. With `Cc1cc(NC(=O)C(Cl)c2ccccc2)no1` (centres undefined) the Potency was inconclusive [activator, single point]. For `O=C1c2ccccc2S(=O)(=O)N1CC1CC(c2ccccc2)=NO1` (centres undefined), the Potency was inconclusive [activator, partial curve]. For `CCOC(=O)c1cnc(-n2nc(C)cc2C)nc1NCc1ccccc1`, the Potency was inconclusive [activator, single point]. In the case of `Cc1nc(-c2ccc(F)cc2)sc1CCNC(=O)c1ccccc1`, the Potency is reported as active: 17.8 µM. With `CCN1CCOC(=O)C1CC(=O)Nc1ccccc1C(F)(F)F` (centres undefined) the growth rescue (activation) was inconclusive: -93.3% [activator]. In the case of `CC(=O)c1cn(CCOc2ccc(F)cc2)c2ccccc12`, the Potency is reported as inconclusive [activator, partial curve]. With `COc1ccc(/C=N/NC(=O)c2cccs2)c2ccccc12` the Potency was inconclusive [activator, partial curve]. In the case of `CCCOc1ccc(N2C(=O)CC(N3CCN(CCN=CC4=C(O)CC(C)(C)CC4=O)CC3)C2=O)cc1` (centres undefined), the Potency is reported as inconclusive [activator, partial curve, poor fit].
